Experimental findings from ChEMBL document CHEMBL1201862, “PubChem BioAssay data set” (2004) are described below.

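Exposure lasted 48 hours, with cells grown in 96-well plates and compounds tested at five concentrations. GI50 = concentration required for 50% inhibition of growth.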 Calls of active or inactive are those of the source. No stated cut-off is given here; in the data, active = GI50 up to about 1.1 µM and inactive = higher.

For this assay, the system named is NCI-H322M. Kind of assay: growth of human tumour cells (NCI), 48 h.
With `CCCCCCCCCOC(=O)c1cnc(Cl)cn1`, the GI50 is inactive: 15.3 µM.

For `CC(=O)CC(=O)Nc1ccc2ccccc2c1`, the GI50 was inactive: > 100 µM.

As to `CCOc1cc2c(cc1O)/C(=N\OC)C[C@@H]1[C@@H]2CC[C@]2(C)[C@@H](O)CC[C@@H]12`, the GI50 was active: 0.441 µM.

`O=C(O)C1CCN(Cc2oc(CO)cc(=O)c2O)C1` (stereo not drawn): the GI50 is inactive: 63.2 µM.

For `O=C(CCc1ccc(O)cc1)NCCc1ccc(O)cc1`, the GI50 is inactive: > 100 µM.

For the compound `O=C(CCN1CCCCC1)N1CCc2c([nH]c3ccccc23)C1c1cccnc1` (stereo not drawn), the GI50 is inactive: 70.6 µM.

As to `COc1ccc(/C=C/CN(C)CCc2ccccc2)cc1OC`, the GI50 was inactive: > 100 µM.

Consider `N#CCCN(CCC#N)c1ccc(/C=C(/NC(=O)c2cc([N+](=O)[O-])ccc2Cl)C(=O)NN)cc1`, for which the GI50 was inactive: > 100 µM.

Regarding `O=C(N/N=C(/c1ccccc1)C(F)(F)F)c1ccncc1`, the GI50 is inactive: > 100 µM.

Turning to `CCOC(=O)NC(=O)c1cn(CCCCCOC(=O)NCCCCCCNC(=O)OCCCCCn2cc(C(=O)NC(=O)OCC)c(=O)[nH]c2=O)c(=O)[nH]c1=O`, the GI50 is inactive: > 100 µM.

In the case of `Cc1nc(N)sc1C(=O)/C=C/c1ccc(/C=C/C(=O)c2sc(NC(=O)CCCCCCCCC(=O)Nc3nc(C)c(C(=O)/C=C/c4ccc(/C=C/C(=O)c5sc(N)nc5C)cc4)s3)nc2C)cc1`, the GI50 was inactive: > 100 µM.

In the case of `Cc1ccc(CSC(=N)Nc2ccccc2)cc1C`, the GI50 was inactive: 28.2 µM.

Take `COc1ccc(C(=O)OCC2OC(n3cnc4c(=S)nc[nH]c43)C(OC(=O)c3ccc(OC)cc3)C2OC(=O)c2ccc(OC)cc2)cc1` (stereo not drawn): the GI50 is inactive: 39.4 µM.

Turning to `COc1ccc(C2c3cc4c(cc3OC(N3CCOCC3)C2C)OCO4)cc1OC` (stereo not drawn), the GI50 was inactive: 11.6 µM.

Regarding `O=C(c1cc2c(C(F)(F)F)onc2c2ccccc12)C(F)(F)F`, the GI50 is inactive: 8.15 µM.

As for `COC1C(N(C)C)=C(c2ccccc2)C(=O)N2CCc3ccccc3C12` (stereo not drawn), the GI50 is inactive: > 100 µM.

`CC/C=C/C[C@H](O[Si](C)(C)C(C)(C)C)[C@H]1C[C@H]2O[C@H]([C@@H](O)C#C[Si](C)(C)C)C[C@H]2O1`: the GI50 was inactive: 14.4 µM.

For the compound `Cc1cccc(C)c1NC(=O)CCCC(=O)C1CC(=O)CCC1=O` (stereo not drawn), the GI50 is inactive: > 100 µM.

Regarding `COc1ccc(CC(N)=O)cc1OC`, the GI50 is inactive: > 1250 µM.

As for `CC(=O)Nc1cc2ccc(=O)oc2cc1Cl`, the GI50 was inactive: > 100 µM.

As to `O=CC(O)C(O)C(O)C(O)COC(=O)NCCCCC(=O)C(F)(F)C(F)(F)C(F)(F)C(F)(F)C(F)(F)C(F)(F)C(F)(F)F` (stereo not drawn), the GI50 is inactive: 53.7 µM.

Turning to `CC(C)CC1[C@@H](OCc2ccccc2)COS(=O)(=O)N1Cc1ccccc1` (stereo partly drawn), the GI50 is inactive: > 100 µM.

Regarding `Clc1c(Cl)c(Cl)c2nn(C3CCCO3)nc2c1Cl` (stereo not drawn), the GI50 was inactive: > 100 µM.

As for `O=C1CCCC/C1=C\c1ccc(Cl)c(Cl)c1`, the GI50 was inactive: 23.4 µM.

Consider `NNc1ncc2c(n1)-c1ccccc1OC2`, for which the GI50 is inactive: 44.1 µM.

Take `COC(=O)CCc1ccc2c(c1)CC1(C2)Cc2ccc(CCC(=O)OC)cc2C1`: the GI50 is inactive: > 100 µM.

Regarding `COC(=O)CC(c1ccccc1)C1(c2ccccc2)SCCS1` (stereo not drawn), the GI50 is inactive: > 290 µM.

As to `CCOC(=O)C(C)c1nc2cc(C(F)(F)F)ccc2[nH]c1=O` (stereo not drawn), the GI50 was inactive: > 100 µM.

As for `O=P(c1ccccc1)(c1ccccc1)N1O[C@@H](c2ccccc2)C=C[C@H]1c1ccccc1`, the GI50 was inactive: 14.2 µM.

For `Cn1cc(NC(=O)c2cc(NC(=O)CCCCCCCC(=O)Nc3cc(C(=O)Nc4cc(C(=O)NCCC(=N)N)n(C)c4)n(C)c3)cn2C)cc1C(=O)NCCC(=N)N`, the GI50 was inactive: 28.4 µM.

On to `CCC(C)C(=O)OC1C(=O)OC2CC3C(C)=CC(=O)C(O)C3(C)C3C4(O)OCC23C1C(C)C4O` (stereo not drawn), for which the GI50 was active: 0.36 µM.

`O=C(OCC(OC(=O)c1ccccc1)C1CC(C2(O)CCCCC2)C(=O)O1)c1ccccc1` (stereo not drawn): the GI50 is inactive: > 25 µM.

On to `CN(C)c1n/c(=N/c2ccc3c(c2)OCO3)ss1`, for which the GI50 was inactive: 67 µM.

Turning to `O=c1nc(NC(c2ccccc2)(c2ccccc2)c2ccccc2)ccn1CCNCCn1ccc(NC(c2ccccc2)(c2ccccc2)c2ccccc2)nc1=O`, the GI50 is inactive: 10.8 µM.

As to `O=C1CSC2=NCC3(NN12)c1ccccc1-c1ccccc13`, the GI50 is inactive: > 10 µM.

Consider `COc1ccc(C(=O)C(c2ccc(OCc3ccccc3)cc2)c2ccc(OCc3ccccc3)cc2)cc1`, for which the GI50 is inactive: > 100 µM.

On to `CC(=O)C1Cn2c(nc3ccccc32)C[Se]1` (stereo not drawn), for which the GI50 was inactive: 6.37 µM.

As to `COc1ccc(C(CC2(c3ccc(OC)cc3)SCCCS2)NC(C)=O)cc1` (stereo not drawn), the GI50 is inactive: > 100 µM.

As for `O=C(N(O)c1ccccc1Cl)C(O)(c1ccccc1)c1ccccc1`, the GI50 was inactive: 85.1 µM.

Regarding `NC(CCC(=O)c1ccccn1)C(=O)O` (stereo not drawn), the GI50 is inactive: > 100 µM.

Turning to `[O-][S+]1Nc2c(Cl)cc(Cl)c(Cl)c2S1` (stereo not drawn), the GI50 was inactive: > 100 µM.

In the case of `CSc1nc(NC2OCC(OC(C)=O)C(OC(C)=O)C2OC(C)=O)c2c(n1)OCC2=O` (stereo not drawn), the GI50 is inactive: > 100 µM.

Regarding `COC(=O)C1=CO[C@@H](OC2OC(CO)C(O)C(O)C2O)[C@H]2[C@@H](C)[C@@H](O)[C@@H](O)[C@@H]12` (stereo partly drawn), the GI50 was inactive: > 100 µM.

For the compound `CSc1ccc(/C=C2/C[N+](C)(C)C/C(=C/c3ccc(SC)cc3)C2=O)cc1`, the GI50 was inactive: 38.9 µM.

As for `C=CCSC[C@H](NC(=O)COc1ccccc1)C(=O)NC(C(=O)OCc1ccc([N+](=O)[O-])cc1)=C(C)C`, the GI50 is inactive: > 100 µM.

Take `O=C(N/N=C\c1ccc(Cl)cc1)Nc1cccc2ccccc12`: the GI50 is inactive: 5.93 µM.

As for `COc1ccc(C2C(C#N)=C(S)N(C3OC(COC(C)=O)C(OC(C)=O)C(OC(C)=O)C3OC(C)=O)C(C)=C2C(C)=O)cc1` (stereo not drawn), the GI50 was inactive: > 100 µM.

In the case of `CN(C)c1n/c(=N/Cc2cccs2)ss1`, the GI50 was inactive: > 10 µM.

As for `C/C=C/C(O)P1(=O)N(Cc2ccccc2)[C@@H]2CCCC[C@H]2N1Cc1ccccc1` (stereo partly drawn), the GI50 is inactive: > 25 µM.

For `COc1cc(CN2CCCCC2)cc2cc(C(=O)O)c(=O)oc12`, the GI50 is inactive: > 100 µM.

In the case of `COC(=O)c1c2c(cc3c1CC1(Cc4cc5c(c(C(C)=O)c4C1)CCCC5)C3)CCCC2` (stereo not drawn), the GI50 was inactive: > 100 µM.

Regarding `CSc1ncnc2c1CCN2`, the GI50 is inactive: > 10 µM.

Regarding `Cc1c(-c2coc(-c3ccccc3)n2)c(=O)n(-c2ccccc2)n1C`, the GI50 is inactive: > 100 µM.

In the case of `COC(=O)CCC(C)[C@H]1CCC2C3CC[C@@H]4CC5(CC[C@]4(C)C3C[C@H](OC(C)=O)[C@@]21C)OOC1(CCCCC1)OO5` (stereo partly drawn), the GI50 was inactive: 43.8 µM.

`CC(=O)NC1C(OCc2ccccc2)OC(CO)C(O)C1OC(C)C(=O)NC(C)C(=O)NC(CCC(=O)NCCCCNc1c2ccccc2nc2cccc([N+](=O)[O-])c12)C(N)=O` (stereo not drawn): the GI50 is active: 0.0585 µM.

As to `O=c1c2ccccc2nc(-c2cccc([N+](=O)[O-])c2)n1O`, the GI50 was inactive: 35.7 µM.

For the compound `COc1ccc(-c2csc(-n3c(-c4ccccc4)nc4c(Br)cc(Br)cc4c3=O)n2)cc1`, the GI50 was inactive: 28.2 µM.

Turning to `COc1cccc(C(C#N)NC23CC4CC(CC(C4)C2)C3)c1` (stereo not drawn), the GI50 is inactive: > 100 µM.

Take `Cc1ccc2nc(Cl)c(/C=N/N3C(=O)/C(=C/c4ccc(N(C)C)cc4)N=C3c3ccccc3)cc2c1`: the GI50 was inactive: > 100 µM.

As for `CC(NC(=O)c1c(O)[nH]c(=S)[nH]c1=O)c1ccc([N+](=O)[O-])cc1` (stereo not drawn), the GI50 is inactive: 57 µM.

As for `N#CC(C(=O)C(N)=O)c1ccccc1Cl` (stereo not drawn), the GI50 was inactive: > 100 µM.

With `Nc1ncnc2c1ncn2C1OC(COP(=O)(O)CP(=O)(O)O)C(O)C1O` (stereo not drawn), the GI50 is inactive: > 100 µM.

Consider `Cc1cc(C)nc(NS(=O)(=O)c2ccc(NC(=O)c3cccc4cc5ccccc5nc34)cc2)n1`, for which the GI50 was inactive: 86.3 µM.

In the case of `COc1ccc(C(=O)C(c2ccc(OC)cc2)C2(O)C(=O)Nc3ccccc32)cc1` (stereo not drawn), the GI50 is inactive: > 100 µM.

For the compound `COC(=O)CC1(O)C(=O)OCc2c1cc1n(c2=O)Cc2c-1nc1ccccc1c2OC` (stereo not drawn), the GI50 is inactive: 2.13 µM.

With `CCCCC1(O)CC2CC1C(C)C2(C)C` (stereo not drawn), the GI50 is inactive: > 100 µM.

Take `C[C@]12CCC(=O)C=C1CC[C@@H]1C2CC[C@]2(C)NC(=O)C(C#N)CC12` (stereo partly drawn): the GI50 is inactive: > 100 µM.

`O=C(O)c1ccc(NC(NC(=O)C(C(F)(F)F)C(F)(F)F)(C(F)(F)F)C(F)(F)F)cc1`: the GI50 was inactive: > 100 µM.

On to `O=c1c2ccccc2nc(-c2ccccc2)n1NC(=S)Nc1ccc(Cl)cc1[N+](=O)[O-]`, for which the GI50 was inactive: > 100 µM.

Regarding `CC(C)=CCC(OC(=O)C=C(C)C)c1cc(O)c2c(c1O)C(=O)C=CC2=O` (stereo not drawn), the GI50 was inactive: 3.02 µM.

`O=C1/C(=C/c2cccs2)N=C(c2ccccc2)N1c1nc2ccccc2s1`: the GI50 is inactive: 69.3 µM.

For `O=C1CC2CC3OC3[C@H]3c4cc5c(cc4C(=O)N1C23)OCO5` (stereo partly drawn), the GI50 was inactive: > 100 µM.

Regarding `COc1ccc(/C=C\c2cc(OC)c(O[Si](C)(C)C(C)(C)C)c(OC)c2)cc1`, the GI50 is inactive: > 100 µM.

Consider `COc1ccc(C2=C(OC(=O)N(C)C)c3cccn3-c3cc(C(F)(F)F)ccc3S2)cc1`, for which the GI50 is inactive: > 10 µM.

As for `COC1(OC)C[C@H](C)[C@@]23O[C@]24C2=CC(=O)C=CC2=N[C@H]3C#C/C=C\C#C[C@]14O`, the GI50 was inactive: 1.19 µM.

For `c1ccc([P+](c2ccccc2)(c2ccccc2)c2ccc([P+](c3ccccc3)(c3ccccc3)c3ccccc3)c3ccccc23)cc1`, the GI50 is inactive: > 100 µM.

On to `CN(C)c1ccc(N=O)c(O)c1.CN(C)c1ccc(N=O)c(O)c1.[SiH4]`, for which the GI50 is inactive: 8.69 µM.

For the compound `Nc1ncnc2c1ncn2C1OC(CO)C2OC21` (stereo not drawn), the GI50 was inactive: > 100 µM.
